Measured values from patent publication US20250361279A1 (Hoffmann-La Roche, published 2025).

T1: IL-7 receptor (IL-7R alpha chain and common gamma chain) on human T cells (human, UniProt P16871 21-459; P31785 23-369)
T1 sequence (looked up) 1: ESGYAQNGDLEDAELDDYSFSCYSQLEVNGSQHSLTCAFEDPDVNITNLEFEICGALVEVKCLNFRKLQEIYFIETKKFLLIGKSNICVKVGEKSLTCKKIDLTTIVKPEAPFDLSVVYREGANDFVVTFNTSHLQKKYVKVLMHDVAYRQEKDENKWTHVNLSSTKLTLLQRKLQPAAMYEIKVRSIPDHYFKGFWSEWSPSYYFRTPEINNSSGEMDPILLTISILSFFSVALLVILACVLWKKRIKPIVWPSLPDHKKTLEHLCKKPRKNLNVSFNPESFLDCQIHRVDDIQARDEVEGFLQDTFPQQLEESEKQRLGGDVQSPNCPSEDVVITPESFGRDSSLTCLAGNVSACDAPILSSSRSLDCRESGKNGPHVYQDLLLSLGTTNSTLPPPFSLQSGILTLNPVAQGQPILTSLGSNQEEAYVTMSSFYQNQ
T1 sequence (looked up) 2: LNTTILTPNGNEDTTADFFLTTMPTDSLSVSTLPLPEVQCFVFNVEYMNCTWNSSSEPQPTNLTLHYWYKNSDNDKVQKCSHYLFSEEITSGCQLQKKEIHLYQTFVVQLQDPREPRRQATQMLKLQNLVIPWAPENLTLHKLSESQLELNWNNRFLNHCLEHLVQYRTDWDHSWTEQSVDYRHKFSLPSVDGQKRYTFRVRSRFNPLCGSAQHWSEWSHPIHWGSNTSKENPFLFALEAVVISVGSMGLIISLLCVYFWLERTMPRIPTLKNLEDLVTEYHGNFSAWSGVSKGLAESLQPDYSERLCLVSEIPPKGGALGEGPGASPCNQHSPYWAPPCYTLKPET

B1: P1AG3727 (PD1-IL7var18_21, partially glycosylated; IL7 K81E, G85E, T93A, S118A; (G4S)2G4 linker) (other)
light: DIVMTQSPDSLAVSLGERATINCKASESVDTSDNSFIHWYQQKPGQSPKLLIYRSSTLESGVPDRFSGSGSGTDFTLTISSLQAEDVAVYYCQQNYDVPWTFGQGTKVEIKRTVAAPSVFIFPPSDEQLKSGTASVVCLLNNFYPREAKVQWKVDNALQSGNSQESVTEQDSKDSTYSLSSTLTLSKADYEKHKVYACEVTHQGLSSPVTKSFNRGEC
heavy 1: EVQLLESGGGLVQPGGSLRLSCAASGFSFSSYTMSWVRQAPGKGLEWVATISGGGRDIYYPDSVKGRFTISRDNSKNTLYLQMNSLRAEDTAVYYCVLLTGRVYFALDSWGQGTLVTVSSASTKGPSVFPLAPSSKSTSGGTAALGCLVKDYFPEPVTVSWNSGALTSGVHTFPAVLQSSGLYSLSSVVTVPSSSLGTQTYICNVNHKPSNTKVDKKVEPKSCDKTHTCPPCPAPEAAGGPSVFLFPPKPKDTLMISRTPEVTCVVVDVSHEDPEVKFNWYVDGVEVHNAKTKPREEQYNSTYRVVSVLTVLHQDWLNGKEYKCKVSNKALGAPIEKTISKAKGQPREPQVCTLPPSRDELTKNQVSLSCAVKGFYPSDIAVEWESNGQPENNYKTTPPVLDSDGSFFLVSKLTVDKSRWQQGNVFSCSVMHEALHNHYTQKSLSLSPG
heavy 2: EVQLLESGGGLVQPGGSLRLSCAASGFSFSSYTMSWVRQAPGKGLEWVATISGGGRDIYYPDSVKGRFTISRDNSKNTLYLQMNSLRAEDTAVYYCVLLTGRVYFALDSWGQGTLVTVSSASTKGPSVFPLAPSSKSTSGGTAALGCLVKDYFPEPVTVSWNSGALTSGVHTFPAVLQSSGLYSLSSVVTVPSSSLGTQTYICNVNHKPSNTKVDKKV[sequence of human IgG1 Fc with changes omitted]GGGGSGGGGSGGGGDCDIEGKDGKQYESVLMVSIDQLLDSMKEIGSNCLNNEFNFFKRHICDANKEGMFLFRAARKLRQFLKMNSTGDFDLHLLEVSEETTILLNCAGQVKGRKPAALGEAQPTKSLEENKALKEQKKLNDLCFLKRLLQEIKTCWNKILMGTKEH
B2: P1AG3048 (PD1-IL7var18_21, fully glycosylated; IL7 K81E, G85E; (G4S)2G4 linker) (other)
light: B1 light
heavy 1: B1 heavy 1
heavy 2: EVQLLESGGGLVQPGGSLRLSCAASGFSFSSYTMSWVRQAPGKGLEWVATISGGGRDIYYPDSVKGRFTISRDNSKNTLYLQMNSLRAEDTAVYYCVLLTGRVYFALDSWGQGTLVTVSSASTKGPSVFPLAPSSKSTSGGTAALGCLVKDYFPEPVTVSWNSGALTSGVHTFPAVLQSSGLYSLSSVVTVPSSSLGTQTYICNVNHKPSNTKVDKKV[sequence of human IgG1 Fc with changes omitted]GGGGSGGGGSGGGGDCDIEGKDGKQYESVLMVSIDQLLDSMKEIGSNCLNNEFNFFKRHICDANKEGMFLFRAARKLRQFLKMNSTGDFDLHLLEVSEETTILLNCTGQVKGRKPAALGEAQPTKSLEENKSLKEQKKLNDLCFLKRLLQEIKTCWNKILMGTKEH
B3: P1AH6003 (new PD1-IL7v, fully glycosylated; IL7 V15A, G85K; (G2SG2)3 linker) (other)
light: B1 light
heavy 1: B1 heavy 1
heavy 2: EVQLLESGGGLVQPGGSLRLSCAASGFSFSSYTMSWVRQAPGKGLEWVATISGGGRDIYYPDSVKGRFTISRDNSKNTLYLQMNSLRAEDTAVYYCVLLTGRVYFALDSWGQGTLVTVSSASTKGPSVFPLAPSSKSTSGGTAALGCLVKDYFPEPVTVSWNSGALTSGVHTFPAVLQSSGLYSLSSVVTVPSSSLGTQTYICNVNHKPSNTKVDKKV[sequence of human IgG1 Fc with changes omitted]GGSGGGGSGGGGSGGDCDIEGKDGKQYESALMVSIDQLLDSMKEIGSNCLNNEFNFFKRHICDANKEGMFLFRAARKLRQFLKMNSTGDFDLHLLKVSEKTTILLNCTGQVKGRKPAALGEAQPTKSLEENKSLKEQKKLNDLCFLKRLLQEIKTCWNKILMGTKEH
B4: P1AH6002 (new PD1-IL7v, fully glycosylated; IL7 V15A, K81A; (G2SG2)3 linker) (other)
light: B1 light
heavy 1: B1 heavy 1
heavy 2: EVQLLESGGGLVQPGGSLRLSCAASGFSFSSYTMSWVRQAPGKGLEWVATISGGGRDIYYPDSVKGRFTISRDNSKNTLYLQMNSLRAEDTAVYYCVLLTGRVYFALDSWGQGTLVTVSSASTKGPSVFPLAPSSKSTSGGTAALGCLVKDYFPEPVTVSWNSGALTSGVHTFPAVLQSSGLYSLSSVVTVPSSSLGTQTYICNVNHKPSNTKVDKKV[sequence of human IgG1 Fc with changes omitted]GGSGGGGSGGGGSGGDCDIEGKDGKQYESALMVSIDQLLDSMKEIGSNCLNNEFNFFKRHICDANKEGMFLFRAARKLRQFLKMNSTGDFDLHLLAVSEGTTILLNCTGQVKGRKPAALGEAQPTKSLEENKSLKEQKKLNDLCFLKRLLQEIKTCWNKILMGTKEH
B5: P1AH6004 (new PD1-IL7v, fully glycosylated; IL7 V18K, G85K; (G2SG2)3 linker) (other)
light: B1 light
heavy 1: B1 heavy 1
heavy 2: EVQLLESGGGLVQPGGSLRLSCAASGFSFSSYTMSWVRQAPGKGLEWVATISGGGRDIYYPDSVKGRFTISRDNSKNTLYLQMNSLRAEDTAVYYCVLLTGRVYFALDSWGQGTLVTVSSASTKGPSVFPLAPSSKSTSGGTAALGCLVKDYFPEPVTVSWNSGALTSGVHTFPAVLQSSGLYSLSSVVTVPSSSLGTQTYICNVNHKPSNTKVDKKV[sequence of human IgG1 Fc with changes omitted]GGSGGGGSGGGGSGGDCDIEGKDGKQYESVLMKSIDQLLDSMKEIGSNCLNNEFNFFKRHICDANKEGMFLFRAARKLRQFLKMNSTGDFDLHLLKVSEKTTILLNCTGQVKGRKPAALGEAQPTKSLEENKSLKEQKKLNDLCFLKRLLQEIKTCWNKILMGTKEH

target: T1, IL-7 receptor (IL-7R alpha chain and …); test: cell-based or functional assay

Potency reduction to PD1-IL7wt: EC50 (PD1+)/EC50 (PD1-IL7wt) [fold]	STAT-5P AUC, PD1+ CD4 T cells	STAT-5P AUC, PD1-blocked CD4 T cells	Binder
795	15.3	7.8	B1
874	13.1	6.1	B2
140	16.6	4.2	B3
52.6	57.1	16.7	B4
80.2	14.1	3.4	B5

target: T2, human PD-1 on activated CD4 T cells (human, UniProt Q15116 25-288); test: cell-based or functional assay

Cis-delivery: fold increase in EC50, EC50 [with PD1bl]/EC50 [no PD1bl] [fold]	Delta AUC (PD1+ vs PD1bl.)	Binder
3.8	7.4	B1
12.4	7	B2
4.1	12.4	B3
31.7	40.4	B4
0.1	10.6	B5

target: T1, IL-7 receptor (IL-7R alpha chain and …); test: cell-based or functional assay; remark: another data set of the same source

Potency reduction to PD1-IL7wt: EC50 (PD1+)/EC50 (PD1-IL7wt) [fold]	STAT-5P AUC, PD1+ CD4 T cells	STAT-5P AUC, PD1-blocked CD4 T cells	Binder
625	22	15.1	B1
299	19.2	12.3	B2

target: T2, human PD-1 on activated CD4 T cells; test: cell-based or functional assay; remark: another data set of the same source

Cis-delivery: fold increase in EC50, EC50 [with PD1bl]/EC50 [no PD1bl] [fold]	Delta AUC (PD1+ vs PD1bl.)	Binder
2	6.9	B1
0.001	7	B2

target: T1, IL-7 receptor (IL-7R alpha chain and …); test: cell-based or functional assay; remark: another data set of the same source

Percentage of rescued Granzyme B production by Tconv (Treg suppression assay, 6 nM) [%]	Percentage of suppressed Granzyme B production by Tconv (Treg suppression assay, 6 nM) [%]	Binder
46.8	53.2	B4
20.1	79.9	B5
